The structures appear in SMILES notation. Whole data set: some 110,000 compounds, median “z-score” near -0.1, cut for the highest 2% near 2. The list shows a part of the results.

The assay concerns the target Metabotropic glutamate receptor 8 (Rattus norvegicus) (UniProt P70579). Kind of assay: mGluR8 Gi/Go-coupled signaling modulation – cell-based, rat, thallium flux, HTS, primary screen (AID 488969). As to conditions: HEK293 rat mGluR8, GIRK (G protein-gated inwardly rectifying potassium channel) thallium flux, FluoZin2; at 10 µM; stronger effect = higher value; submaximal glutamate (EC20) added with thallium.
Chain of UniProt P70579 (P70579 whole entry, looked up): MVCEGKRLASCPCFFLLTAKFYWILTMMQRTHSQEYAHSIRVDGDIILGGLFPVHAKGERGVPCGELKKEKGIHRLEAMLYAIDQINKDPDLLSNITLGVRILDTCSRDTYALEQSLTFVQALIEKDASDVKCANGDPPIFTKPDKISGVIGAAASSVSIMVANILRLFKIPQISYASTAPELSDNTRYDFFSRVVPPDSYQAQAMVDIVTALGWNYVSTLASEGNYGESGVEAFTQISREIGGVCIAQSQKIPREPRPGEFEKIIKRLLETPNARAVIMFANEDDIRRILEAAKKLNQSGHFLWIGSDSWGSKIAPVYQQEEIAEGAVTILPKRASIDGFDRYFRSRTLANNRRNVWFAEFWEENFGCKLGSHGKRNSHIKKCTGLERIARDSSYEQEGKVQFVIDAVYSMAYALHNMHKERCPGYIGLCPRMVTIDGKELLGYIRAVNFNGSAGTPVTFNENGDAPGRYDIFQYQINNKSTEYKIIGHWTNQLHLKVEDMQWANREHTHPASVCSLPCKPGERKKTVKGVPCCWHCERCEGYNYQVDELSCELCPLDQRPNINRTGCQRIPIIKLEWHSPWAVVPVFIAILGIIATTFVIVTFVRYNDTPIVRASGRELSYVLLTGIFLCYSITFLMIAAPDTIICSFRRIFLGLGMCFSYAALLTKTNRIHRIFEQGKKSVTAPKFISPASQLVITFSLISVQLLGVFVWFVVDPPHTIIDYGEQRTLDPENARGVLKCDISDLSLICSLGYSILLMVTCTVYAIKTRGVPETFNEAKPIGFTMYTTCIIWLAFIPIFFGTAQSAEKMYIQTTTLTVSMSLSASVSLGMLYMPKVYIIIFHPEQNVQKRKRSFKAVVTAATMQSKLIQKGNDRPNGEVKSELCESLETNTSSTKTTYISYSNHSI
Compound `O=C(NCCN1CCOCC1)c1csc2c1CCCC2` returned a z-score of 0.0583.
The figure for `N#CC1=C(N)N(c2ccccc2)C(c2cccc([N+](=O)[O-])c2)C1(C#N)C#N` (stereo not given) is -0.422.
Turning to `O=C(CSc1nc2ccc(Cl)cc2[nH]1)NCc1ccco1`, the z-score was -0.042.
Turning to `Cc1c(OCc2ccccc2)c(=O)ccn1Cc1ccc(Cl)cc1`, the z-score is -0.131.
Then `COC(=O)[C@H](CCSC)NC(=O)NCc1ccccn1`, with 0.183; and `Cc1cc(C)nc(-n2ncc3c2CC(c2ccc(C(C)C)cc2)CC3=O)n1` (stereo not given), with -0.724.
Regarding `COc1ccc(CCNc2nncc(=O)[nH]2)cc1OC`, the z-score was -0.392.
Take `Cc1ccc(NC(=O)COC(=O)CN2C(=O)COc3ccccc32)cc1`: the z-score is 0.349.
Then `Cc1ccc(CSc2nc3ccsc3c(=O)n2Cc2ccccn2)cc1`, with -0.158; and `Cc1cccc2sc(NC(=O)C3CCCN(S(=O)(=O)c4cccc5nonc45)C3)nc12` (stereo not given), with 0.344; and `CO/N=C/c1ccc(N2CCN(C(=O)c3ccc(F)cc3)CC2)c([N+](=O)[O-])c1`, with -0.0861.
Then `COC(=O)CSc1nsc(SCC(=O)OC)c1C#N`, with -1.31; and `CC(=O)C1=NN(c2ccccc2)C(c2ccc3c(c2)OCO3)N1c1ccc(N2CCOCC2)cc1` (stereo not given), with -0.272.
The figure for `Cc1nc(N)nc(-c2ccccc2O)n1` is -0.0718.
In the case of `CC(C(=O)Nc1ccccc1Br)c1ccc([N+](=O)[O-])cc1` (stereo not given), the z-score was -0.249.
The figure for `CCCCCC(=O)NC(=S)Nc1ccc(Cl)cn1` is 0.107; for `CCOc1nc(Nc2ccc([N+](=O)[O-])cc2)nc(NC(C)(C)C)n1` it is -0.416.
Then `COc1cccc(CSc2nc3sc(C)c(C)c3c(=O)n2Cc2ccco2)c1`, with -0.922; and `COC(=O)c1ccc(C(=O)OC)c(NC(=O)COC(=O)c2ccccc2OC)c1`, with -0.349; and `Cn1c(N)c(C(=O)COC(=O)C23CC4CC(CC(C4)C2)C3)c(=O)n(C)c1=O`, with 0.00208.
Compound `CCOc1cc(S(=O)(=O)NCc2ccc3c(c2)OCO3)c(C)cc1C` showed a z-score of 0.0193.
For `CN1C(=S)SC(N2OC3C(=O)N(c4ccccc4)C(=O)C3C2c2ccc(Cl)cc2)C1(C)C` (stereo not given), the z-score stood at 0.274.
The figure for `COC(=O)c1c(C)oc2ccc(N(C(=O)c3ccncc3)S(=O)(=O)c3ccc(C)cc3)cc12` is -0.348; for `COC(=O)CSc1nnc(CNS(=O)(=O)c2ccc(Cl)cc2)n1C` it is 0.115.
Turning to `C=CCOc1ccc(/C=N/n2cncn2)cc1OC`, the z-score is -1.97.
The figure for `Cc1[nH]n(-c2ccccc2)c(=O)c1CCOC(=O)c1ccc(C(F)(F)F)cc1` is 0.903.
The figure for `CCn1nccc1C(=O)Nc1ccc(Cl)cn1` is 0.0113; for `Cc1ccc2nc(SC(C)C(=O)NC3CCCc4ccccc43)[nH]c2c1` (stereo not given) it is -0.653.
Then `Cc1ccc(C)n1-n1cnc2sc3c(c2c1=O)CCC3`, with -0.669; and `CNc1nc(N)c([N+](=O)[O-])c(NCCO)n1`, with -0.289.
In the case of `CCOC(=O)N1CCN(C(=O)c2ccc(N(C)S(C)(=O)=O)cc2)CC1`, the z-score was determined as 0.9.
The figure for `COc1ccc(CN2C3CCCC2CC(NC(=O)Nc2cccc(C)c2)C3)cc1` (stereo not given) is 0.234; for `CCOC(=O)COc1ccccc1C1Nc2ccccc2C(=O)N1c1cccc(Cl)c1` (stereo not given) it is -0.577; for `CN(C)c1ccc(C2NCC(CCl)O2)cc1` (stereo not given) it is -0.159.
Regarding `Cc1ccc(C(C(=O)NC2CCCCC2)N(C(=O)Cc2c[nH]c3ccccc23)c2ccccc2)o1` (stereo not given), the z-score was -0.122.
The figure for `COc1ccc(-c2n[nH]c(C)c2-c2ccc(OC)c(OC)c2)c(O)c1` is -0.332; for `COC(=O)c1c(NC(=O)CN2CCCc3ccccc32)sc(C)c1C` it is -0.0545; for `O=C(N/N=C/C=C/c1ccccc1[N+](=O)[O-])c1cc(-c2ccccc2)n[nH]1` it is 0.153.
Regarding `CCCCOC(=O)C1=C(C)Nc2nnnn2C1c1ccccc1Cl` (stereo not given), the z-score was -1.64.
Then `c1ccc(-c2ncc(CSc3nncn3-c3ccccc3)s2)cc1`, with -0.325; and `CC1CN(C(=O)CSc2nc(-c3ccc(F)cc3)cs2)CC(C)O1` (stereo not given), with -0.898; and `Cc1c(C(=O)N2CCCCC2)sc(NC(=O)C(C)C)c1C#N`, with 0.972.
The figure for `Cc1onc(-c2ccccc2Cl)c1C(=O)N1CCc2ccccc2C1` is -0.95; for `COc1ccc(NC(=O)c2ccccc2NC(=O)CSc2ccc(Cl)cc2)cc1` it is 0.0857; for `COc1ccc(N(CC(=O)Nc2ccc3c(c2)OCO3)S(=O)(=O)c2ccccc2)c(OC)c1` it is -0.555.
In turn, `CCCCN(C(=O)Cn1nnc2ccccc21)C(C(=O)NCCOC)c1cccs1` (stereo not given) registered a z-score of 1.44.
Then `CCOC(=O)c1c(Cc2ccc(Cl)cc2)c[nH]c1C`, with -0.453; and `Cc1nc2ccc(C(=O)N3CCN(c4ccccn4)CC3)cc2s1`, with 0.0972; and `CCc1nnc(NC(=O)C2CCN(S(=O)(=O)Cc3ccccc3)CC2)s1`, with -0.126.
Then `COc1cccc(OC)c1C(=O)Nc1nnc(C(C)C)s1`, with 0.62; and `Cc1cc(C(=O)Nc2nc3c(C)cccc3s2)c(C)o1`, with -0.249; and `O=C(Nc1cccc(NC(=O)c2cccnc2)c1)c1cccnc1`, with -0.515.
In turn, `CC(=O)C1=NN(c2ccccc2)C(c2cccs2)N1c1ccc(N(C)C)cc1` (stereo not given) had a z-score of 0.04.
Consider `CCCn1c(CC)nc([N+](=O)[O-])c1Sc1ccc(C)cc1`, for which the z-score is -0.237.
The figure for `CCn1cc(C(=O)Nc2cc3c(cc2NC(C)=O)OCCO3)c(=O)c2ccc(C)nc21` is -0.248; for `C=CCN(C(=O)Cn1nnc2ccccc21)C(C(=O)NCCOC)c1ccc(OC)cc1OC` (stereo not given) it is 0.024.
Then `COc1ccc(Cn2nnnc2C(C(C)C)N2CCN(c3ccccc3OC)CC2)cc1` (stereo not given), with -0.562.
The figure for `CC(C)(C)c1ccc(-c2c(C#N)c(N)nc3c2CCCC3)s1` is -0.139; for `O=C(N/N=C/c1cn(-c2ccccc2)nc1-c1ccccc1)c1ccco1` it is -0.161; for `CCOc1cc(CNc2ccc3c(c2)OCCO3)cc(Br)c1OCC` it is 0.325.
Regarding `Cc1ccc2[nH]c3c(=O)n(Cc4ccccn4)cnc3c2c1`, the z-score was -0.645.
`CCC(=O)Nc1nnc(CCc2ccccc2)s1`: the z-score was -0.331.
`CCCC(=O)Nc1ccc(C(=O)NCc2ccccc2Cl)cc1`: the z-score was found to be 0.219.
Then `Cc1cc(=O)oc2cc(OC(=O)CCCCCN3C(=O)c4ccccc4C3=O)ccc12`, with -0.272; and `Cc1c(NC(=O)CSc2nc3ccccc3s2)c(=O)n(-c2ccccc2)n1C`, with -1.17.
Turning to `CCOC(=O)c1c2c(c(=S)n(-c3ccccc3)c1N)CCC2`, the z-score was -0.0535.
Then `Cc1onc(-c2c(F)cccc2Cl)c1C(=O)N1CCc2ccccc21`, with 0.0163.
As to `CC(C)Oc1ccc(C(=O)NNC(=O)c2ccccc2C(=O)O)cc1`, the z-score came to 0.741.
The figure for `O=C(/C=C/c1ccccc1)CC(O)(c1ccccc1)C(F)(F)F` (stereo not given) is -0.548.
`Clc1ccc(CSc2nnc3ccccn23)c(Cl)c1` came in with a z-score of -4.51e-05.
Then `COC(Cc1n[nH]c(=S)n1-c1ccc(Cl)cc1)OC`, with -0.147; and `Cn1c(SCc2ccc(Br)cc2)nnc1-c1ccncc1`, with -0.143.
Then `CCOC(=O)c1sc2cc([N+](=O)[O-])cc(SCC(C)C)c2c1N`, with 0.221; and `Cc1cc(N)ccc1N=Nc1c(C)n(C)n(-c2ccccc2)c1=O`, with -0.136; and `COc1ccc(-c2nc(SCC(=O)Nc3cc(C)on3)n[nH]2)cc1`, with -0.536.
The figure for `COc1ccc(/C=C/c2ccncc2)cc1` is 0.357; for `COC(=O)c1ccc(C(=O)OC)c(NC(=O)COC(=O)C2CCC(C(C)(C)C)CC2)c1` (stereo not given) it is 0.00256.
For the compound `COc1ccccc1Oc1cc(F)nc(N)n1`, the z-score was -0.0954.
The figure for `Cc1ccc(C)c(N(CC(N)=O)S(C)(=O)=O)c1` is -0.254; for `CC(=O)Nc1cccc(Oc2cc(C#N)c(C#N)cc2N2CCOCC2)c1` it is -0.086.
The compound `COc1cc(Br)c(S(=O)(=O)Nc2c(C)n(C)n(-c3ccccc3)c2=O)cc1OC` displayed a z-score of -0.396.
The figure for `N#CC1=C(N)OC2=C(C(=O)CCC2)C1CCc1ccccc1` (stereo not given) is -0.153; for `C=CCn1c(SCC(=O)NC(=O)NC2CCCC2)nnc1C1CCCCC1` it is -0.691; for `CCc1ccc2c(CN(CC)Cc3nc4ccccc4c(=O)[nH]3)cc(=O)oc2c1` it is -0.389.
The figure for `CCOc1cc(C2Nc3cccc4cccc(c34)N2)ccc1O` is -1.37; for `COC(=O)c1ccc(CSc2nc3c(cnn3-c3ccc(Cl)cc3)c(=O)[nH]2)o1` it is -0.236; for `Cc1ccc(Nc2nc(N)nc(CN3CCc4ccccc4C3)n2)cc1` it is 0.216.
Then `O=C(Cn1ncc2c1-c1ccccc1OC2)Nc1ccc(Cl)cn1`, with -0.092; and `COc1ccc(N=c2scc(-c3ccc(OC)cc3)n2CCO)cc1`, with -0.174; and `CCCN1Cc2cccc(C(=O)Nc3ccc(CC)cc3)c2C1=O`, with -0.0573.
Compound `CCOC(=O)c1ccc(N/C(=N\S(=O)(=O)c2ccc(F)cc2F)c2ccccc2)cc1` registered a z-score of -0.265.
`CCc1c(C#N)c(SCCC(=O)Nc2ccc(C)cc2)nc2c1C(=O)CC(C)(C)C2` came in with a z-score of -0.656.
Then `Cc1cc(C)n(C(=O)c2cc3c(s2)CCCC3)n1`, with -0.378.
On to `Cc1ccc(NC(=O)CSc2nnc(-c3ccccn3)n2C)cc1`, for which the z-score is -0.197.
Then `CCN(C(=O)c1cn(C)c(=O)c2cc(OC)c(OC)cc12)c1ccccc1C`, with -0.294.
Then `Cc1oc(-c2cccc(Cl)c2)nc1CN1CCCC(C(=O)NCc2ccco2)C1` (stereo not given), with -0.867.
Then `CCOC(=O)c1cn(-c2ccccc2CO)c2c(F)c(F)c(F)cc2c1=O`, with -0.237; and `Cc1[nH]c(=O)[nH]c(=O)c1S(=O)(=O)N1CCCC1`, with -0.107.
On to `CCCCN(C(=O)CSc1nnc(Nc2ccc(C)c(C)c2)s1)c1c(N)n(Cc2ccccc2)c(=O)[nH]c1=O`, for which the z-score is 0.0297.
The figure for `Cc1ccc(N(C(=O)C2CCC(=O)N2)C2(C(=O)NC3CCCC3)CCCCC2)cc1` (stereo not given) is 0.0276; for `CCOC(=O)c1ccc2c(c1)nc(SCc1cn3ccsc3n1)n2CC` it is -2.52.
The figure for `O=C(NNc1cccc(Cl)n1)c1c(Cl)cccc1Cl` is -0.0235.
Then `COc1ccc(OC)c(NC(=O)CSc2nc3cccnc3n2C)c1`, with -0.242; and `O=C(CCC(=O)N1CCCC1)Nc1nnc(C(F)(F)F)s1`, with 1.45; and `C=CCn1c(=O)c2ccccc2n2c(SC(C)C(=O)Nc3nc(-c4ccccc4)cs3)nnc12` (stereo not given), with 1.12.
As to `CC(C)NCCOCCSc1ccc(Cl)cc1`, the z-score stood at 0.335.
In turn, `CSC1=NCCN1C(=O)c1ccc(Br)o1` had a z-score of 0.631.
Take `Cc1cc(C)c(NC(=O)Cc2ccc(-n3cccc3)cc2)c(C)c1`: the z-score was 0.0542.
Compound `Cc1ccc(N=CC2=C(O)CC(C)(C)CC2=O)nc1` yielded a z-score of -0.136.
The figure for `COc1ccc(CNC(=O)CN(Cc2ccccc2)S(=O)(=O)c2ccc(Cl)cc2)cc1` is -0.547.

These data come from PubChem BioAssay AID488969 (Vanderbilt High Throughput Screening Facility, 2010).
